# Data from PubChem BioAssay (NCATS).
# Inconclusive results, whose numbers are uncertain, are shown with a selection of clear calls. For some of these results: Potencies of inconclusive entries are doubtful fits and often do not repeat. Active and inactive are the calls of the source. The call rests on the fitted dose curve; in most records, active means well fitted curve in the direction sought with a large enough effect; inconclusive means small, poorly fitted or top-dose-only effect, or another doubt; inactive means no such curve, though single readings can be large; an effect the other way counts as inactive or inconclusive.
# Tests used:
# MCC-26 = test: qHTS assay to identify novel small-molecules to repurpose for Merkel cell carcinoma treatment (AID 1296009); conditions: MCC and control cell lines, CellTiter-Glo viability, 72 h; series mostly up to 46 µM; further: nearly all actives have a fitted effect of over 60% in size
# Outline: (§1)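 Luminescence from CellTiter-Glo, read 10 min after addition at room temperature, reported viability following a 72 hr, 37 degree celsius treatment with NPC or MIPE compounds in titration; values normalized to plate controls.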
# UISO = test: as above; conditions: MCC and control cell lines, CellTiter-Glo viability, 72 h; activity change, negative = cytotoxicity: at 46 µM (top of the series) unless noted
# Outline: as §1
# MKL-1 = test: as above; conditions: MCC and control cell lines, CellTiter-Glo viability, 72 h; activity change, negative = cytotoxicity: at 46 µM (top of the series) unless noted
# Outline: as §1
# W2 = test: qHTS profiling for inhibitors of Plasmodium falciparum proliferation (AID 504749); further: nearly all actives have a fitted effect of over 60% in size; conditions: P. falciparum in erythrocytes, SYBR Green DNA, 72 h; series mostly up to 28.7 µM
# Outline: (§2)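 Fluorescence of SYBR Green-bound parasite DNA, read at 485/535 nm, served as the growth measure. Infected erythrocytes were cultured with compound 72 h; artemisinin (0.29 uM) and DMSO wells defined the normalization range.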
# MKL-2 = test: qHTS assay to identify novel small-molecules to repurpose for Merkel cell carcinoma treatment (AID 1296009); conditions: MCC and control cell lines, CellTiter-Glo viability, 72 h; series mostly up to 46 µM; further: nearly all actives have a fitted effect of over 60% in size
# Outline: as §1
# C33A = test: Primary qHTS to identify gynecologic anti-cancer compounds using libraries of approved drugs and bioactive compounds (AID 1345084); conditions: Gynecologic cancer cell panel viability, ATPlite luminescence, 48 h; series mostly up to 57.5 µM; further: nearly all actives have a fitted effect of over 55% in size
# Outline: (§3)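 Cells, 1,000 per well, were allowed to settle for 16 h at 37 C before compound addition. Five concentrations were tested for 48 h, and viability was read by ATPlite luminescence after 15 min at room temperature.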
# OV90 = test: as above; conditions: Gynecologic cancer cell panel viability, ATPlite luminescence, 48 h; series mostly up to 57.5 µM
# Outline: as §3
# SC27B = test: qHTS profiling for inhibitors of Plasmodium falciparum proliferation (AID 504749); further: nearly all actives have a fitted effect of over 60% in size; conditions: P. falciparum in erythrocytes, SYBR Green DNA, 72 h; series mostly up to 28.7 µM
# Outline: as §2
# TAB165 = test: as above; conditions: P. falciparum in erythrocytes, SYBR Green DNA, 72 h; series mostly up to 28.7 µM
# Outline: as §2
# CAOV3 = test: Primary qHTS to identify gynecologic anti-cancer compounds using libraries of approved drugs and bioactive compounds (AID 1345084); conditions: Gynecologic cancer cell panel viability, ATPlite luminescence, 48 h; series mostly up to 57.5 µM; further: nearly all actives have a fitted effect of over 55% in size
# Outline: as §3
# Es-2 = test: as above; conditions: Gynecologic cancer cell panel viability, ATPlite luminescence, 48 h; series mostly up to 57.5 µM
# Outline: as §3
# HeLa = test: as above; conditions: Gynecologic cancer cell panel viability, ATPlite luminescence, 48 h; series mostly up to 57.5 µM
# Outline: as §3
# Hek293T = test: as above; conditions: Gynecologic cancer cell panel viability, ATPlite luminescence, 48 h, control line for the selectivity index; series mostly up to 57.5 µM
# Outline: as §3
# JEG-3 = test: as above; conditions: Gynecologic cancer cell panel viability, ATPlite luminescence, 48 h; series mostly up to 57.5 µM
# Outline: as §3
# WaGa = test: qHTS assay to identify novel small-molecules to repurpose for Merkel cell carcinoma treatment (AID 1296009); conditions: MCC and control cell lines, CellTiter-Glo viability, 72 h; series mostly up to 46 µM; further: nearly all actives have a fitted effect of over 60% in size
# Outline: as §1
# TAB109 = test: qHTS profiling for inhibitors of Plasmodium falciparum proliferation (AID 504749); further: nearly all actives have a fitted effect of over 60% in size; conditions: P. falciparum in erythrocytes, SYBR Green DNA, 72 h; series mostly up to 28.7 µM
# Outline: as §2
# TAB113 = test: as above; conditions: P. falciparum in erythrocytes, SYBR Green DNA, 72 h; series mostly up to 28.7 µM
# Outline: as §2
# CASKI = test: Primary qHTS to identify gynecologic anti-cancer compounds using libraries of approved drugs and bioactive compounds (AID 1345084); conditions: Gynecologic cancer cell panel viability, ATPlite luminescence, 48 h; series mostly up to 57.5 µM; further: nearly all actives have a fitted effect of over 55% in size
# Outline: as §3
# Potency means the concentration at half of the fitted maximal effect; tags describe the fitted curve by direction and shape.
smiles,measurement,setting,value
CCOC(=O)C1(c2ccccc2)CCN(CCc2ccc(N)cc2)CC1,Potency,MCC-26,inactive
same,Potency,UISO,"inconclusive: 10.6 µM [inhibitor, partial curve]"
CC[C@H]1C=CC=CC[C@@H](C)[C@H](O)[C@@](C)(O)C(=O)[C@@H](C)[C@H](O)[C@@H](C)C(=O)[C@@H](C)[C@H](O)[C@@H](C)C=CC(=O)O[C@@H]2[C@@H](C)[C@H](CC1)O[C@]1(CC[C@H](C)[C@H](C[C@@H](C)O)O1)[C@H]2C,Potency,MCC-26,"inconclusive: 26.4 µM [inhibitor, single point]"
same,Potency,MKL-1,active: 0.296 µM
same,Potency,UISO,active: 1.66 µM
Cc1c(C(=O)c2cccc3ccccc23)c2cccc3c2n1[C@H](CN1CCOCC1)CO3,Potency,MKL-1,active: 23.5 µM
CC(C)[N+](C)(CCC(C(N)=O)(c1ccccc1)c1ccccc1)C(C)C,Potency,W2,"inconclusive: 7.21 µM [inhibitor, single point]"
same,Potency,MCC-26,inactive
same,Potency,MKL-1,"inconclusive: 33.5 µM [inhibitor, partial curve, poor fit]"
same,Potency,MKL-2,"inconclusive: 11.9 µM [inhibitor, partial curve]"
same,Potency,C33A,"inconclusive: 2.82 µM [cytotoxic, single point]"
same,Potency,OV90,"inconclusive: 7.94 µM [cytotoxic, partial curve]"
CN(C)C(=S)SSC(=S)N(C)C,Potency,SC27B,active: 6.31 µM
same,Potency,TAB165,active: 2.51 µM
same,Potency,MCC-26,active: 0.299 µM
same,Potency,MKL-2,active: 0.596 µM
same,Potency,C33A,active: 1.26 µM
same,Potency,CAOV3,active: 11.2 µM
same,Potency,Es-2,"inconclusive: 39.8 µM [cytotoxic, single point]"
same,Potency,HeLa,inactive
same,Potency,Hek293T,"inconclusive: 15.8 µM [cytotoxic, partial curve, poor fit]"
same,Potency,JEG-3,"inconclusive: 3.98 µM [cytotoxic, partial curve, poor fit]"
CCNC(=O)C[C@@H]1N=C(c2ccc(Cl)cc2)c2cc(OC)ccc2-n2c(C)nnc21,Potency,MCC-26,"inconclusive: 18.7 µM [inhibitor, partial curve]"
same,Potency,MKL-1,"inconclusive: 16.6 µM [inhibitor, partial curve]"
same,Potency,UISO,"inconclusive: 2.35 µM [inhibitor, partial curve]"
same,Potency,WaGa,active: 5.9 µM
same,Potency,Es-2,"inconclusive: 35.5 µM [cytotoxic, single point]"
same,Potency,HeLa,"inconclusive: 3.55 µM [cytotoxic, partial curve]"
same,Potency,Hek293T,"inconclusive: 28.2 µM [cytotoxic, single point]"
same,Potency,JEG-3,"inconclusive: 6.31 µM [cytotoxic, single point]"
Cc1ccccc1-n1c(Cn2ncc3c(N)ncnc32)nc2cccc(C)c2c1=O,Potency,MCC-26,"inconclusive: 2.96 µM [inhibitor, full curve]"
same,Potency,MKL-1,"inconclusive: 0.148 µM [inhibitor, full curve]"
same,Potency,UISO,active: 1.32 µM
same,Potency,WaGa,"inconclusive: 0.105 µM [inhibitor, full curve]"
same,Potency,HeLa,inactive
Nc1ccc([As](=O)(O)O)cc1,Potency,TAB109,inactive
same,Potency,TAB113,inactive
same,Potency,W2,"inconclusive: 1.69 µM [inhibitor, full curve]"
same,Potency,MCC-26,inactive
CC(=O)OC1(c2ccccc2)CCN(CCc2ccccc2)CC1,Potency,MCC-26,"inconclusive: 55.6 µM [inhibitor, partial curve, poor fit]"
same,Potency,MKL-2,"inconclusive: 44.1 µM [inhibitor, partial curve, poor fit]"
same,Potency,UISO,active: 24.8 µM
same,Potency,WaGa,"inconclusive: 55.6 µM [inhibitor, single point]"
same,Potency,CAOV3,"inconclusive: 10 µM [cytotoxic, partial curve, poor fit]"
same,Potency,CASKI,"inconclusive: 70.8 µM [cytotoxic, single point]"
same,Potency,Es-2,inactive
COc1ccc2c(C(=O)c3ccc(Cl)cc3)c(C)n(CC(=O)O)c2c1,Potency,MCC-26,"inconclusive: 10.6 µM [inhibitor, partial curve]"
same,Potency,Es-2,"inconclusive: 1.58 µM [cytotoxic, full curve, poor fit]"
same,Potency,HeLa,"inconclusive: 15.8 µM [cytotoxic, partial curve, poor fit]"
COc1ccc2c(c1OC)C(=O)O[C@H]2[C@@H]1c2cc3c(cc2CCN1C)OCO3,Potency,W2,"inconclusive: 19 µM [inhibitor, partial curve, poor fit]"
same,Potency,MCC-26,inactive
same,Potency,JEG-3,inactive
CN1[C@H]2CC(O)C[C@H]1[C@H]1O[C@H]12 (some centres undefined),Potency,MCC-26,inactive
same,Potency,MKL-2,inactive
same,Potency,UISO,"inconclusive: 26.4 µM [inhibitor, single point]"
C[C@@]12OC(=O)[C@]1([C@@H](O)[C@@H]1C=CCCC1)NC(=O)[C@H]2CCCl,Potency,MCC-26,active: 0.833 µM
same,Potency,UISO,active: 1.48 µM
same,Potency,WaGa,active: 0.662 µM
CCCN1CCC[C@@H]2Cc3nc(N)ncc3C[C@H]21,Potency,MCC-26,"inconclusive: 29.9 µM [inhibitor, partial curve]"
same,Potency,MKL-1,"inconclusive: 33.5 µM [inhibitor, single point]"
same,Potency,WaGa,inactive
C[C@@H]1CC[C@@]2(OC1)O[C@H]1C[C@H]3[C@@H]4CC=C5C[C@@H](O[C@@H]6O[C@H](CO)[C@@H](O[C@@H]7O[C@@H](C)[C@H](O)[C@@H](O)[C@@H]7O)[C@H](O)[C@@H]6O[C@@H]6O[C@@H](C)[C@H](O)[C@@H](O)[C@@H]6O)CC[C@]5(C)[C@@H]4CC[C@]3(C)[C@@H]1[C@H]2C,Potency,MCC-26,active: 10.5 µM
same,Potency,MKL-2,active: 6.62 µM
Sc1ccccc1Cl,Potency,MCC-26,inactive
same,Potency,WaGa,inactive
same,Potency,CASKI,inactive
COc1ccc(C(c2ccc(OC)cc2)C(Cl)(Cl)Cl)cc1,Potency,MKL-1,"inconclusive: 6.79 µM [inhibitor, single point]"
same,Potency,MKL-2,"inconclusive: 19.1 µM [inhibitor, partial curve]"
same,Potency,UISO,"inconclusive: 34 µM [inhibitor, partial curve]"
same,Potency,CAOV3,"inconclusive: 63.1 µM [cytotoxic, single point]"
same,Potency,CASKI,"inconclusive: 31.6 µM [cytotoxic, single point]"
same,Potency,HeLa,"inconclusive: 25.1 µM [cytotoxic, partial curve]"
same,Potency,OV90,"inconclusive: 11.2 µM [cytotoxic, partial curve, poor fit]"
CCC(=O)C(CC(C)N(C)C)(c1ccccc1)c1ccccc1 (centres undefined),Potency,MKL-1,"inconclusive: 43.7 µM [inhibitor, single point]"
same,Potency,MKL-2,"inconclusive: 21.9 µM [inhibitor, partial curve, poor fit]"
same,Potency,UISO,"inconclusive: 49 µM [inhibitor, single point]"
same,Potency,WaGa,"inconclusive: 61.7 µM [inhibitor, single point]"
same,Potency,CAOV3,"inconclusive: 7.94 µM [cytotoxic, single point]"
same,Potency,CASKI,"inconclusive: 63.1 µM [cytotoxic, single point]"
same,Potency,OV90,"inconclusive: 56.2 µM [cytotoxic, single point]"
C[C@]12Cc3nonc3C[C@@H]1CC[C@@H]1[C@@H]2CC[C@@]2(C)[C@H]1CC[C@]2(C)O,Potency,TAB165,"inconclusive: 11.2 µM [inhibitor, single point]"
same,Potency,W2,"inconclusive: 16.9 µM [inhibitor, single point]"
same,Potency,MKL-1,"inconclusive: 16.8 µM [inhibitor, single point]"
same,Potency,UISO,"inconclusive: 11.9 µM [inhibitor, single point]"
same,Potency,HeLa,active: 2.82 µM
same,Potency,OV90,inactive
CCN(CC)C(=O)[C@@H]1C=C2c3cccc4[nH]cc(c34)C[C@H]2N(C)C1,Potency,MKL-1,"inconclusive: 56.6 µM [inhibitor, partial curve]"
same,Potency,MKL-2,"inconclusive: 113 µM [inhibitor, partial curve, poor fit]"
same,Potency,UISO,"inconclusive: 179 µM [inhibitor, single point]"
same,Potency,WaGa,"inconclusive: 179 µM [inhibitor, single point]"
O=[N+]([O-])c1c2ccccc2cc2ccccc12,Potency,MKL-1,"inconclusive: 60.5 µM [inhibitor, single point]"
same,Potency,MKL-2,"inconclusive: 0.0108 µM [inhibitor, full curve]"
same,Potency,WaGa,"inconclusive: 42.8 µM [inhibitor, single point]"
same,Potency,HeLa,"inconclusive: 44.7 µM [cytotoxic, single point]"
